Measurements: PubChem BioAssay AID651820 (National Center for Advancing Translational Sciences (NCATS), 2012)
In all, about 340,000 compounds went through this assay and about 12,000 (3.5%) were called active. Inconclusive results, whose numbers are uncertain, are shown with a selection of clear calls. Calls follow the shape of the dose curve; as a rule, active = well fitted inhibition curve with a large enough effect; inconclusive = small, poorly fitted or top-dose-only effect, or another doubt; inactive = no such curve, though single readings can be large or run the other way. No potency is given beside an inconclusive call; the fits are too rough.

Assay: qHTS Assay for Inhibitors of Hepatitis C Virus (HCV)
Settings: Huh7.5.1 HCVcc-Cre (HCVcc is cell-culture hepatitis C virus) infection, luciferase reporter, 44 h; series mostly up to 41.8 µM
Procedure, shortened: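 Infectious HCVcc-Cre (~0.5 moi) was added to cells just after compound, with cells seeded 4 h earlier at 1,000 per well. Luciferase activity after 44 h culture reported infection; substrate was incubated 15 min at room temperature before reading.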
Potency is read from the fitted curve at half-maximal effect; tags tell the direction and shape of the fitted curve.

SMILES | Potency
O=c1c2ccccc2oc2ccc(NCCCN3CCOCC3)cc12 | inconclusive [inhibitor, single point]
CN(C(=O)c1ccccc1C(=O)OCC(=O)Nc1cccc(Br)c1)c1ccccc1 | inconclusive [inhibitor, single point]
C/C(=N\NC(=O)c1nnn(-c2nonc2N)c1CSc1ccccc1)c1cccnc1 | inactive
CCc1ccc2c(c1)C1(NN=C(c3ccccc3)S1)C(=O)N2 (stereo unspecified) | inconclusive [inhibitor, single point]
CCCCCCCCCCCCCCCC[N+](C)(C)CC | inconclusive [inhibitor, partial curve]
Cc1ccccc1OCC(=O)Nc1ccc(N2CCOCC2)cc1N1CCOCC1 | inconclusive [inhibitor, single point]
CCOc1cc(-c2cc(-c3ccc(OC)cc3)nc(N)c2C#N)ccc1O | inactive
CCCCOc1ccc(Cl)cc1CSc1nnc(C)n1N | inconclusive [inhibitor, single point]
COc1ccc(CNC(=S)NCc2ccc(F)cc2)cc1OC | inconclusive [inhibitor, partial curve]
COc1ccc(-c2csc(NC(C)=O)n2)cc1OC | inconclusive [inhibitor, partial curve]
CCCCn1c2c(c(=O)n(C)c1=O)C(c1ccc(OC)cc1)N1CCCCCC1=N2 (stereo unspecified) | inactive
Cc1cccc(C)c1N=Cc1c(O)n(-c2nccs2)c(=O)c2ccccc12 | inconclusive [inhibitor, single point]
Cc1cc(Cl)ccc1OCC(O)CNCCc1ccc(S(N)(=O)=O)cc1 (stereo unspecified) | inconclusive [inhibitor, partial curve]
CC(C)(C)c1ccc(C(=O)N2CCN(c3nc4ccccc4o3)CC2)cc1 | active: 10 µM
C/C(=N\NC(=O)c1cc(C(C)C)[nH]n1)c1ccco1 | inconclusive [inhibitor, partial curve]
O=[N+]([O-])c1ccc(Cl)c(/C=N/N2CCN(Cc3ccccc3Cl)CC2)c1 | inactive
Cn1c(CCCOc2ccc(Cl)cc2Cl)nnc1SCC(=O)Nc1nccs1 | inconclusive [inhibitor, partial curve, poor fit]
CN1CCCN(C(=O)CNC(=O)Cc2ccccc2)CC1 | inconclusive [inhibitor, partial curve]
Cc1ccc(NC(=O)C2CCN(S(=O)(=O)c3cccs3)CC2)cc1C | inconclusive [inhibitor, single point]
C=C(C)C1Cc2c(C)nn(-c3nc(C)cc(C)n3)c2C1 (stereo unspecified) | inconclusive [inhibitor, partial curve]
CC1=NN(C(N)=S)C(C)(C)C1 | inactive
CCN1CNC(=S)N(C(C)c2ccccc2)C1 (stereo unspecified) | inconclusive [inhibitor, full curve]
Cc1ccc(C(=O)NC2CCCCCCC2)cc1S(=O)(=O)N1CCOCC1 | inconclusive [inhibitor, partial curve]
CCOc1ccc2cc(C#N)c(SCC(=O)N3CCC(C)CC3)nc2c1 | inconclusive [inhibitor, partial curve]

SMILES | Potency
CCOC(=O)N1CCN(C/C(C)=C/c2ccccc2)CC1 | inactive
CC1=CC(=NOC(=O)/C=C/c2ccccc2)C=C(C)C1=O | inconclusive [inhibitor, single point]
O=C(NC(Nc1nc2ccc([N+](=O)[O-])cc2s1)(C(F)(F)F)C(F)(F)F)c1cccnc1 | active: 4.47 µM
CCC(Cc1ccccc1)NS(=O)(=O)c1ccc2c(c1)NC(=O)C(C)S2 (stereo unspecified) | inconclusive [inhibitor, single point]
COc1cc(/C=C/c2ccccc2)cc(OC)c1 | inconclusive [inhibitor, single point]
Cc1ccc(S(=O)(=O)N/N=C\c2cc3c(cc2[N+](=O)[O-])OCO3)cc1 | inconclusive [inhibitor, partial curve, poor fit]
CCCCCOc1ccc(NC(=O)C(=O)NCCCn2ccnc2)cc1 | inconclusive [inhibitor, partial curve]
CCCCN(C(=O)CC(c1ccccc1)c1ccccc1)c1c(N)n(CCC)c(=O)[nH]c1=O | inconclusive [inhibitor, single point]
CC(Sc1cccc[n+]1[O-])C(=O)NC1CCCCC1C (stereo unspecified) | inactive
COc1ccc(CC2(CO)CCN(Cc3cnn(-c4ccc(F)cc4)c3)CC2)cc1 | active: 10 µM
O=C(COCc1cc(-c2ccc3c(c2)OCO3)on1)N1CCCCC1 | inactive
CCOC(=O)NN=C1c2ccccc2-c2ccccc21 | inconclusive [inhibitor, single point]
CCOC(=O)c1c(C)c(C(=O)NCCOC)c(C)n1CC | inactive
COc1ccc(/C=C2/CCc3ccccc3C2=O)cc1CN1CCOCC1 | inconclusive [inhibitor, single point]
O=C(COc1ccccc1)N1CCN(CC(O)COc2ccccc2)CC1 (stereo unspecified) | inactive
Cc1ccc(C(=O)N/N=C/c2ccc(-c3ccc(Br)cc3[N+](=O)[O-])o2)o1 | inconclusive [inhibitor, partial curve]
Cc1ccccc1NC(=O)CSc1nn2c(=O)c(C)nnc2s1 | inactive
Cc1nc(N2CCOCC2)sc1C=O | inactive
O=c1c(Cl)c(Cl)cnn1Cc1nnc(-c2ccccc2Br)o1 | inconclusive [inhibitor, single point]
COc1ccccc1NC(=O)c1ccc(S(=O)(=O)N2CCCC(C)C2)cc1 (stereo unspecified) | inconclusive [inhibitor, single point]
COc1cc(/C=N/NC(=O)c2nnn(-c3nonc3N)c2C(C)C)ccc1OCc1ccc(F)cc1 | inconclusive [inhibitor, full curve, poor fit]
COc1cc(OC)c(NC(=O)CS(=O)(=O)Cc2nc(-c3ccc(C)cc3)oc2C)cc1Cl | inconclusive [inhibitor, single point]
Cc1ccc(-c2cc(-c3ccccc3)nc(N(C)N)n2)cc1 | inconclusive [inhibitor, partial curve]
COc1ccccc1Nc1nc2ccc(C)cc2cc1C#N | inconclusive [inhibitor, full curve]

SMILES | Potency
CCN(Cc1ccccc1)C(=O)c1ccc(N(C)S(=O)(=O)c2ccc(C)cc2)cc1 | inactive
COc1ccc(CCNS(=O)(=O)c2cc3c4c(c2)CC(=O)N4CCC3)cc1 | inactive
COc1ccccc1NS(=O)(=O)c1cc(NC(=O)c2cccs2)ccc1N1CCCC1 | inconclusive [inhibitor, single point]
C=CCn1c(SCc2csc(-c3ccc(C)cc3)n2)nnc1-c1ccccc1OC | inconclusive [inhibitor, single point]
CC(=O)c1cccc(NC(=O)C2CCCN(S(=O)(=O)c3ccc(F)cc3)C2)c1 (stereo unspecified) | inconclusive [inhibitor, single point]
Cc1cc(C(=O)COC(=O)c2ccc(N)c([N+](=O)[O-])c2)c(C)n1-c1ccc2c(c1)OCO2 | active: 2 µM
Cc1ccc(CN2C(=O)C(CC(C)C)Nc3ncnc(N4CCN(c5ccccc5)CC4)c32)cc1 (stereo unspecified) | inconclusive [inhibitor, partial curve]
CCOc1ccccc1CNC(=O)c1ccc2c(c1)N(CC)CCS2 | inconclusive [inhibitor, partial curve]
COc1ccc(/C=C/C(=O)c2c(O)c(OC)c3occc3c2OC)cc1 | inconclusive [inhibitor, partial curve]
CCn1c(=O)c(C(=O)NCc2ccccc2Cl)c(O)c2ccccc21 | inconclusive [inhibitor, single point]
COc1cc(NC(=O)c2ccco2)c(OC)cc1NC(=O)Nc1ccccc1Cl | inconclusive [inhibitor, full curve]
O=C(Nc1ccc(S(=O)(=O)NC2=NCCCCC2)cc1)c1cc(F)c(F)cc1Cl | inconclusive [inhibitor, single point]
COc1cc(/C=N/NC(=O)c2cc(C)oc2C)ccc1OCc1ccccc1 | inconclusive [inhibitor, partial curve]
COCCNc1nc(-c2cc(-c3ccc(Cl)cc3)on2)cc(C(C)C)n1 | inconclusive [inhibitor, partial curve]
CN1CCN(c2nc(-c3ccc(Cl)s3)cs2)CC1 | inconclusive [inhibitor, single point]
Cc1ccc(S(=O)(=O)N2Cc3ccccc3CC2C(=O)NC(C)(C)C)cc1 (stereo unspecified) | inactive
CN(CC(=O)Nc1cccc(F)c1)C(=O)CSc1nc2ccccc2s1 | inconclusive [inhibitor, single point]
Cc1cc(OCCCCCN2CCCC2)ccc1Cl | active: 10 µM
Cc1cccc(OCC(=O)Nc2nnc(S(=O)(=O)N3CCCCCC3)s2)c1 | inactive
CN1C(C(=O)NCc2ccccc2)CC2Cn3c(nc4ccccc43)C21 (stereo unspecified) | inconclusive [inhibitor, single point]
COCCNC(=O)/C(C#N)=C/c1cccs1 | inactive
CN(Cc1ccccc1F)C(=O)c1ccccc1Sc1ccccc1C#N | inactive
Cc1oc(-c2ccc(Cl)cc2)nc1CN1CCC(C(=O)NCCCN2CCOCC2)CC1 | active: 8.91 µM
